Consider 53 molecules from PubChem BioAssay AID1347073 (National Center for Advancing Translational Sciences (NCATS), 2019).

The campaign covered roughly 45,000 compounds. About 200 (0.44%) were called active. Inconclusive results (about 7%) are left out. The call rests on the fitted dose curve; in most records, active means well fitted activation curve with a large enough effect; inconclusive means small, poorly fitted or top-dose-only effect; inactive means no such curve, though single readings can be large or run the other way. This is one part of the list.

A short description of the assay: qHTS of TDP-43 Inhibitors: NCGC Sytravon Library Screen. Further: 0% is about no effect; nearly all actives have a fitted effect of over 55% in size. The following applies: yeast TDP-43 toxicity rescue, BacTiter-Glo growth, 24 h; series mostly up to 46.1 µM; growth rescue (activation): at the top concentration. Summed up:
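TDP-43-expressing yeast, pregrown in raffinose, seeded at OD600 0.02 in galactose medium with compound for 24 hr at 30 deg C. Growth read by BacTiter-Glo luminescence, so rescue of toxicity appears as activation.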
(In general: Quantitative high-throughput screening tests each substance at several concentrations.)
In the case of `O=C(Nc1ccccc1Cl)c1ccc(S(=O)(=O)NCC2CCCO2)cc1` (stereo not drawn), the “growth rescue (activation)” value is inactive: 7.89%.

For `CCCCOc1ccc(C(=O)Nn2c(-c3cccs3)nc3ccccc3c2=O)cc1`, the “growth rescue (activation)” value is inactive: 13.9%.

For `O=C(NC(=S)Nc1ccc(NC(=O)c2cccs2)cc1)c1cc2ccccc2o1`, the “growth rescue (activation)” value was inactive: -24.5%.

In the case of `O=C(NC1CCSc2ccccc21)c1ccc(C(F)(F)F)cc1` (stereo not drawn), the “growth rescue (activation)” value was inactive: -7.86%.

Take `Cc1cc(C)nc(N/N=C/c2cc3c(cc2[N+](=O)[O-])OCO3)n1`: the “growth rescue (activation)” value was inactive: 8.34%.

With `Cn1c(N)c(C(=O)c2ccc(F)cc2F)c(=O)n(C)c1=O`, the “growth rescue (activation)” value was inactive: 4.17%.

With `Cc1ccc(SCCC(=O)NNC(=O)c2ccccc2F)cc1`, the “growth rescue (activation)” value is inactive: 28.4%.

For `Cc1cc(NS(=O)(=O)c2ccc(NC(=O)c3ccc(Cl)cc3[N+](=O)[O-])cc2)no1`, the “growth rescue (activation)” value was inactive: 8.21%.

For `COc1cccc(NC(=O)COC(=O)C2CCN(S(=O)(=O)c3cccs3)CC2)c1`, the “growth rescue (activation)” value was inactive: 1.95%.

In the case of `CCCc1nnc(NC(=O)CCC(=O)N2CCN(c3nc(C)cc(C)n3)CC2)s1`, the “growth rescue (activation)” value is inactive: -3.3%.

As to `Cn1c(SCC(=O)NNC(=O)c2ccc(Br)cc2)nnc1-c1cccnc1`, the “growth rescue (activation)” value is inactive: -0.903%.

`O=C(NNC1CC(=O)N(c2ccccc2)C1=O)c1ccccc1Cl` (stereo not drawn): the “growth rescue (activation)” value was inactive: -1.73%.

Regarding `COc1ccccc1N=C1SCC(=O)N1c1ccccc1OC`, the “growth rescue (activation)” value was inactive: 7.52%.

As for `C/C(=N\O)c1oc2ccc3c(C)cc(=O)oc3c2c1C`, the “growth rescue (activation)” value was inactive: 5.12%.

On to `Cc1cccc(-n2c(Cn3nc(C)c([N+](=O)[O-])c3C)n[nH]c2=S)c1`, for which the “growth rescue (activation)” value is inactive: 21.2%.

In the case of `NC(=O)c1ccc(NC(=O)COC(=O)c2cc3ccccc3cc2O)cc1`, the “growth rescue (activation)” value was inactive: -1.32%.

Consider `Cc1ccc(S(=O)(=O)N2CCCCC2)cc1NC(=O)CSc1ncn[nH]1`, for which the “growth rescue (activation)” value is inactive: 5.22%.

In the case of `CC(=O)Nc1ccc(S(=O)(=O)NC2CCCCCC2)cc1`, the “growth rescue (activation)” value was inactive: -0.738%.

Consider `O=C(COC(=O)COc1cccc(Br)c1)Nc1c(Cl)cccc1Cl`, for which the “growth rescue (activation)” value was inactive: -18.1%.

In the case of `CCN(C(=O)CSc1nnc(COc2cccc(C)c2)o1)c1nc(C)cs1`, the “growth rescue (activation)” value was inactive: 0.167%.

In the case of `O=C(NCCCn1ccnc1)c1cc(S(=O)(=O)N2CCOCC2)ccc1F`, the “growth rescue (activation)” value was inactive: 7.39%.

In the case of `CCn1ncc(CN2CCN(Cc3cccc(OC)c3)C(CCO)C2)c1C` (stereo not drawn), the “growth rescue (activation)” value is inactive: -13.5%.

Turning to `O=C(CSc1nnc(-c2ccncc2)o1)NCc1ccccc1`, the “growth rescue (activation)” value is inactive: 3.57%.

As to `O=[n+]1cc(-c2ccccc2)n([O-])c2c1CCCCC2`, the “growth rescue (activation)” value was inactive: 13.5%.

With `O=C(/C=C/c1cc([N+](=O)[O-])ccc1OC(F)F)Nc1cccc2ccccc12`, the “growth rescue (activation)” value was inactive: 23%.

Consider `O=C(Nc1nc(-c2ccccn2)cs1)c1ccco1`, for which the “growth rescue (activation)” value is inactive: -20%.

On to `Cn1c(SCC(=O)NNC(=O)c2ccccc2)nnc1C1CC1`, for which the “growth rescue (activation)” value was inactive: 2.14%.

Take `COc1ccc(/C=N/NC(=O)Cn2c(Cc3ccc(OC)c(OC)c3)nc3ccccc32)cc1`: the “growth rescue (activation)” value is inactive: 10.6%.

Take `Cn1c(N)c(C(=O)COC(=O)C2CC(=O)N(Cc3ccccc3)C2)c(=O)n(C)c1=O` (stereo not drawn): the “growth rescue (activation)” value was inactive: 0.577%.

For `COc1ccccc1NC(=O)COC(=O)CCC1CCCC1`, the “growth rescue (activation)” value is inactive: 15%.

For `O=C1Nc2ccccc2O/C1=C\c1ccccc1`, the “growth rescue (activation)” value was inactive: 11.9%.

With `Cc1cccc(C)c1NC(=O)CN1CCCC1`, the “growth rescue (activation)” value was inactive: 4.11%.

As for `CC1Sc2ccccc2N(Cc2ccc(OC(F)(F)F)cc2)C1=O` (stereo not drawn), the “growth rescue (activation)” value is inactive: 14.4%.

Consider `CCCc1nc2c(c(=O)c3ccccc3n2C)c(=O)n1C1CCCCCC1`, for which the “growth rescue (activation)” value was inactive: 19.2%.

In the case of `COc1ccccc1CNCC(=O)Nc1cc(S(=O)(=O)N2CCCCC2)ccc1C`, the “growth rescue (activation)” value was inactive: 28.7%.

Consider `O=C(Cn1c2c(c(-c3ccccc3Cl)cc1=O)CCC2)NCC1CCCO1` (stereo not drawn), for which the “growth rescue (activation)” value was inactive: 33.8%.

For `O=C(Nc1cc(S(=O)(=O)Nc2ccc(Cl)cc2)ccc1N1CCCCC1)c1ccc(F)cc1`, the “growth rescue (activation)” value was inactive: -1.38%.

`COc1ccc(/C=C(\C#N)C(=O)NCc2ccccc2)cc1O`: the “growth rescue (activation)” value was inactive: 14.4%.

Take `O=C(Nc1ccc(C(=O)Oc2ccccc2)c(O)c1)c1ccccc1`: the “growth rescue (activation)” value was inactive: 9.19%.

With `CCOC(=O)N1CCN(C(=O)C2CCN(Cc3cccc(OCc4ccccc4)c3)CC2)CC1`, the “growth rescue (activation)” value was inactive: 9.93%.

In the case of `CC(NC(=S)Nc1ccccc1Cl)C(c1cccs1)N1CCCC1` (stereo not drawn), the “growth rescue (activation)” value is inactive: 7.95%.

For `Cc1cc(OCC(O)CN2C(C)CCCC2C)ccc1C(C)C` (stereo not drawn), the “growth rescue (activation)” value is inactive: 12.5%.

For `Cc1ccc(S(=O)(=O)Nc2ccc(C(=O)N3CCCC3)cc2)c(C)c1NS(C)(=O)=O`, the “growth rescue (activation)” value is inactive: 11.9%.

With `COc1cccc(/C=C2\SC(=S)N(N3CCOCC3)C2=O)c1OC`, the “growth rescue (activation)” value is inactive: 21.4%.

Consider `CC1=C(C#N)C(c2ccoc2)C(C(=O)OCc2ccccc2)=C(N)S1` (stereo not drawn), for which the “growth rescue (activation)” value was inactive: 5.92%.

For `O=C(Nc1cnn(Cc2ccccc2)c1)c1nc2ncccn2n1`, the “growth rescue (activation)” value is inactive: 4.76%.

Regarding `S=C(NC1CCCCC1)N1CCN(Cc2ccccc2)CC1`, the “growth rescue (activation)” value was inactive: 17.3%.

Consider `Cc1ccc2c(c1)N(CC(=O)N1CCCCCC1)C(=O)C(C)O2` (stereo not drawn), for which the “growth rescue (activation)” value was inactive: 1.36%.

In the case of `OC[C@@H]1CN(Cc2ccco2)C[C@H](n2cnc3c(N4CCN(c5ccccc5)CC4)ncnc32)O1`, the “growth rescue (activation)” value was inactive: 1.15%.

On to `COc1cc(C(=O)N2CCC(C(=O)Nc3cccc(C(C)=O)c3)CC2)cc(OC)c1OC`, for which the “growth rescue (activation)” value was inactive: 2.27%.

On to `COc1ccc2c(c1)C(c1cccs1)=NNC(c1cccnc1)=N2`, for which the “growth rescue (activation)” value is inactive: 11.2%.

With `CC(=O)Nc1ccc(NC(=S)NC(=O)c2ccc([N+](=O)[O-])c(C)c2)cc1`, the “growth rescue (activation)” value was inactive: 12.6%.

With `CCOc1ccc(NC(=O)/C(C#N)=C\c2ccc(N3CCCC3)c(C)c2)cc1`, the “growth rescue (activation)” value was inactive: 7.09%.
